# Values joined by “and” are separate entries in the source; they are usually repeats but may differ in a detail not shown here. Equal entries are not always repeated. The campaign covered roughly 420,000 compounds. About 50,000 (12%) were called active. Inconclusive means that the source gave no clear call. Such entries were picked first, then a sample of the others. Calls come from the whole dose curve; as a rule, active = well fitted inhibition curve with a large enough effect; inconclusive = small, poorly fitted or top-dose-only effect; inactive = flat fitted curve, though single readings scatter. Potencies beside an inconclusive call are fits to weak or partial responses and may not hold up.
# Experiment: qHTS for Inhibitors of human tyrosyl-DNA phosphodiesterase 1 (TDP1): qHTS in cells in presence of CPT; note: nearly all actives have a fitted effect of over 55% in size
# Conditions: chicken DT40 Tdp1-/-;hTDP1 cells + 20 nM CPT, ATP luminescence, 48 h; activity change, negative = growth inhibition: at 46.2 µM (top of the series) unless noted
# Method in brief: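 Chicken DT40 Tdp1-/- cells complemented with human TDP1, 400 cells/well, exposed to compounds plus 20 nM camptothecin for at least 48 h at 37 C; viability read as ATP content by CellTiter-Glo luminescence.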
# % is set by controls: 0 for no effect and ±100 for the full control effect; potency is the fitted concentration of half-maximal effect; tags give direction and shape of the fitted curve.
Structure (SMILES),Potency,"activity change, negative = growth inhibition"
Cc1ccc(NC(=O)CSc2nc3ccc(Nc4nc(N5CCOCC5)nc(N5CCOCC5)n4)cc3s2)cc1,"inconclusive: 18.4 µM [inhibitor, single point]",–
COc1ccc2[nH]c3c(c2c1)CCN1C(=O)C(CC(=O)NCC24CC5CC(CC(C5)C2)C4)C[C@H](C(=O)N(C(C)C)C(C)C)[C@@]31C (stereo not given in full),"inconclusive: 25.9 µM [inhibitor, single point]",–
O=C(CCCN1C(=O)c2ccccc2C1=O)Nc1nc2ccccc2[nH]1,inactive,–
CCCCOCCCNC(=O)c1cccs1,–,inconclusive: -34.8% [inhibitor]
COc1cccc(NC(=O)c2cc(Cl)nnc2Cl)c1,active: 0.517 µM,–
O=S(=O)(/N=C(/Nc1cccc2ccccc12)c1ccccc1)c1ccccc1,"inconclusive: 29.1 µM [inhibitor, single point]",–
Cc1c(Cl)cccc1NC(=S)/C(=C(\[O-])c1ccc(Cl)s1)[n+]1ccccc1,inactive,–
O=S(=O)(NN=Cc1ccc(O)cc1O)c1cc(Cl)c(Cl)cc1Cl,inactive,–
CC(C)CNC(=O)C1(C)CCCN1C(=O)c1cccnc1Oc1ccccc1 (stereo not given),inactive,–
O=C(CCCN1C(=O)/C(=C\c2cccs2)SC1=S)Nc1ccccc1O,"inconclusive: 29.1 µM [inhibitor, single point]",–
CCOc1cc(C)nc(N2CCC(C(=O)Nc3ccccc3OCC)CC2)n1,–,inconclusive: -36% [inhibitor]
NS(=O)(=O)c1ccc(N=Nc2c(-c3ccccc3)[nH]n(-c3nc(-c4ccccc4)cs3)c2=O)cc1,active: 9.2 µM,–
COC(=O)C1=C(C(=O)OC)[C@]2([C@H]3CCCCN[C@@H](Cc4ccccc4)C(=O)N3Cc3ccccc3)C=C[C@H]1O2,active: 5.8 µM,–
Cc1ccc2[nH]c3c(=O)n(CC(=O)NCCCN(C)Cc4ccccc4)ncc3c2c1,"inconclusive: 29.1 µM [inhibitor, single point]",–
Cc1ccc(Cn2c(CO)cnc2SCC(=O)NCc2ccccc2Cl)cc1,"inconclusive: 18.4 µM [inhibitor, partial curve]",–
CC(C)[C@@H](C(=O)NC1CCCC1)N1C(=O)N2CCc3c([nH]c4ccccc34)[C@@]2(C)C1=O,"inconclusive: 29.1 µM [inhibitor, single point]",–
COc1ccc(NC(=O)C2(C)CCN2C(=O)Cc2ccc(Cl)cc2Cl)cc1OC (stereo not given),active: 18.4 µM,–
NC(=O)C1CCN(c2nc(-c3ccccc3)nc3c2oc2ccccc23)CC1,"inconclusive: 29.1 µM [inhibitor, single point]",–
Cn1nc(C(F)(F)F)c(-c2ccccc2)c1NC(=O)CSCC(=O)O,inactive,–
Cc1ccc(NS(=O)(=O)c2ccc(OCC(=O)NCc3ccco3)cc2)cc1,active: 18.4 µM,–
CCOC(=O)C1C(c2cccc([N+](=O)[O-])c2)C2C(=O)NN=C2CC1(C)O (stereo not given),–,inconclusive: -33.3% [inhibitor]
CC1CCN(C(=O)Cn2nnc(-c3ccc(C(C)C)cc3)n2)CC1,active: 16.4 µM,–
Cc1ccccc1NC(=O)CNc1ccccc1N1CCCCC1,"inconclusive: 29.1 µM [inhibitor, single point]",–
Cc1cc(Cl)cc(C)c1OCC(=O)N1CCN(c2ncccn2)CC1,"inconclusive: 16.4 µM [inhibitor, single point]",–

Structure (SMILES),Potency,"activity change, negative = growth inhibition"
O=C(NCc1ccc(Cl)cc1)c1ccc(CS(=O)Cc2cccc(Cl)c2)o1 (stereo not given),"inconclusive: 25.9 µM [inhibitor, single point]",–
O=C(C1CCC(Cn2c(=O)c3sccc3n(Cc3cccc(F)c3)c2=O)CC1)N1CCOCC1 (stereo not given),"inconclusive: 25.9 µM [inhibitor, single point]",–
COc1cc(CN(C2CC2)S(=O)(=O)c2ccccc2Br)cc(OC)c1,"inconclusive: 29.1 µM [inhibitor, single point]",–
COc1ccc(Cl)cc1NC(=S)NNC(=O)c1cccs1,inactive,–
CC1CCCC(C)N1C(=O)CN1C(=O)NC2(CCOc3ccccc32)C1=O (stereo not given),inactive,–
CCOC(=O)c1c(CN2CCN(C)CC2)n(C)c2cc(Br)c(OC)cc12,"inconclusive: 29.1 µM [inhibitor, single point]",–
COc1ccc(C(=O)NC(=S)Nc2cccnc2)cc1Cl,inactive,–
COc1ccc2nc(NC(=O)C3CCN(S(=O)(=O)c4cccc5nsnc45)CC3)sc2c1,active: 14.6 µM,–
O=C(NCc1cccnc1)c1cc(-c2ccc(Cl)cc2)oc1C(F)(F)F,"inconclusive: 29.1 µM [inhibitor, single point]",–
CCCCCCC1CC(=O)NC(=O)N1 (stereo not given),inactive,–
O=C1c2cc(Cl)ccc2-c2c(O)cc(Cl)cc21,"inconclusive: 25.9 µM [inhibitor, single point]",–
COC(=O)/C=C1\N/C(=N\c2nc(C)cc(C)n2)N(c2ccccc2)C1=O,inactive,–
COc1ccc(NC(=S)NCCSc2ccc(C)cc2)c(OC)c1,"inconclusive: 29.1 µM [inhibitor, single point]",–
CCCCn1c(N)c(N(CC(C)C)C(=O)c2ccc(-c3ccc(Cl)cc3)o2)c(=O)[nH]c1=O,"inconclusive: 18.4 µM [inhibitor, single point]",–
O=C(Nc1ccccc1Oc1cccnc1)C1CCCN(Cc2ccccc2O)C1 (stereo not given),"inconclusive: 16.4 µM [inhibitor, partial curve]",–
COc1ccc(C2=NN(C(N)=S)C(c3ccco3)C2)cc1 (stereo not given),"inconclusive: 29.1 µM [inhibitor, single point]",–
CC(C)C1N=C2c3ccccc3N=C(SCc3cc(=O)n4cc(Cl)ccc4n3)N2C1=O (stereo not given),"inconclusive: 29.1 µM [inhibitor, single point]",–
CCOC(=O)[C@H]1[C@H]2COc3ccc(C)cc3[C@@H]2N2C(=O)c3cc(F)ccc3NC(=O)[C@@]12C,"inconclusive: 23.1 µM [inhibitor, single point]",–
COc1ccc(N2C(=O)CSC23C(=O)N(CC(=O)Nc2ccccc2F)c2ccccc23)cc1 (stereo not given),inactive,–
OC(COC(c1ccccc1)c1ccccc1)CN1CCOCC1 (stereo not given),"inconclusive: 32.6 µM [inhibitor, single point]",–
Clc1cccc(-c2nc3ccccn3c2Nc2ccc3c(c2)OCCO3)c1,"inconclusive: 16.4 µM [inhibitor, single point]",–
COC(=O)c1ccc(Nc2nc(-c3ccccc3Cl)nc3ccccc23)cc1,"inconclusive: 16.4 µM [inhibitor, single point]",–
Cc1cc(OC(C)C(=O)N2CCC(c3nc4ccccc4o3)CC2)ccc1Cl (stereo not given),active: 23.1 µM,–
Cc1ccc(-c2csc(NC(=O)COc3ccc(N(C)S(=O)(=O)c4ccc(C)cc4)cc3)n2)cc1,active: 14.6 µM,–

Structure (SMILES),Potency,"activity change, negative = growth inhibition"
COc1ccc(S(=O)(=O)N2CCC(N3CCN(c4ccccc4OC)CC3)CC2)cc1,inactive,–
O=C(COC(=O)C1CC2CCCC(C1)C2=O)NC1CCCCC1 (stereo not given),inactive,–
COC(=O)c1ccccc1NC(=O)CSc1nnc(C(CO)NC(=O)c2ccccc2Cl)n1C (stereo not given),"inconclusive: 29.1 µM [inhibitor, single point]",–
Cc1cccc(N2CCN(C(=O)c3cccc(N4C(=O)C5C6C=CC(C6)C5C4=O)c3)CC2C)c1 (stereo not given),active: 13 µM,–
CC1(C)CC(=O)C=C(C(=O)NC2CCCc3c2cnn3-c2cc(F)cc(F)c2)O1 (stereo not given),"inconclusive: 18.4 µM [inhibitor, partial curve]",–
Cc1ccc(-c2nc3ccccc3c(C(=O)NCc3cccs3)c2C)cc1,active: 20.6 µM,–
O=C(CCc1nnc(Cc2ccc(-c3ccccc3)cc2)o1)NCC1CC1,inactive,–
COc1ccc(COC(=O)CCc2cc(OC)c(OC)c(OC)c2)cc1F,inactive,–
Cc1ccc(N(C)C(CNS(=O)(=O)c2ccccc2)c2ccccc2)cc1 (stereo not given),"inconclusive: 23.1 µM [inhibitor, single point]",–
C=CCc1cccc2cc(C(=O)Nc3ccccc3C(=O)O)c(=O)oc12,"inconclusive: 10.3 µM [inhibitor, partial curve]",–
O=C(c1ccccc1-n1cccn1)N1CCc2c([nH]c3ccccc23)C1c1ccccn1 (stereo not given),active: 10.3 µM,–
COc1ccccc1NC(=O)CSc1ccc(-c2ccccn2)nn1,"inconclusive: 18.4 µM [inhibitor, single point] and inconclusive: 29.1 µM [inhibitor, single point]",–
Cc1cccc(N2CCN(C(=O)NC3CCCCC3)CC2)c1C,"inconclusive: 11.6 µM [inhibitor, partial curve]",–
COc1ccc(OC)c2c1sc(=NC(=O)C(C)(C)C)n2C,active: 20.6 µM,–
CCN(CC)CC(=O)N1c2ccccc2Sc2ccccc21,"inconclusive: 29.1 µM [inhibitor, single point]",–
CCN(CC)C(=O)[C@H]1C[C@H](CC(=O)NCc2ccco2)C(=O)N2CCc3c([nH]c4cc(-c5ccco5)ccc34)[C@]12C,"inconclusive: 16.4 µM [inhibitor, single point]",–
CC(C)c1ccc(S(=O)(=O)N2CCN(CC(O)CN3CCOCC3)CC2)cc1 (stereo not given),inactive,–
COC(=O)c1sccc1-n1cccc1C(=O)C(=O)N1CCCC1,inactive,–
CCOc1ccc(N(C)S(=O)(=O)c2ccc3[nH]cc(C(=O)NCC(OC)OC)c(=O)c3c2)cc1,"inconclusive: 25.9 µM [inhibitor, single point]",–
CC(=O)Nc1ccc(-c2ccnc3c2CC(C)(C(=O)Nc2ccc(Cl)c(C(F)(F)F)c2)O3)cc1 (stereo not given),active: 14.6 µM,–
c1ccc2c(SCc3cn4ccccc4n3)nncc2c1,"inconclusive: 20.6 µM [inhibitor, single point]",–
COCCNC(=O)Nc1ccc2nc(-c3cccs3)c(-c3cccs3)nc2c1,"inconclusive: 18.4 µM [inhibitor, single point]",–

# From PubChem BioAssay AID686979 (National Center for Advancing Translational Sciences (NCATS), 2013)
